In all, about 310,000 compounds went through this assay and about 2,200 (0.71%) showed an effect of 50% or more. The effect is printed as a negative number. Some of the results follow.
target: human ether-à-go-go-related gene (hERG) potassium channel (human, UniProt Q12809); test: primary screen, population patch clamp on CHO cells stably expressing hERG
Sequence (Q12809 whole entry, looked up): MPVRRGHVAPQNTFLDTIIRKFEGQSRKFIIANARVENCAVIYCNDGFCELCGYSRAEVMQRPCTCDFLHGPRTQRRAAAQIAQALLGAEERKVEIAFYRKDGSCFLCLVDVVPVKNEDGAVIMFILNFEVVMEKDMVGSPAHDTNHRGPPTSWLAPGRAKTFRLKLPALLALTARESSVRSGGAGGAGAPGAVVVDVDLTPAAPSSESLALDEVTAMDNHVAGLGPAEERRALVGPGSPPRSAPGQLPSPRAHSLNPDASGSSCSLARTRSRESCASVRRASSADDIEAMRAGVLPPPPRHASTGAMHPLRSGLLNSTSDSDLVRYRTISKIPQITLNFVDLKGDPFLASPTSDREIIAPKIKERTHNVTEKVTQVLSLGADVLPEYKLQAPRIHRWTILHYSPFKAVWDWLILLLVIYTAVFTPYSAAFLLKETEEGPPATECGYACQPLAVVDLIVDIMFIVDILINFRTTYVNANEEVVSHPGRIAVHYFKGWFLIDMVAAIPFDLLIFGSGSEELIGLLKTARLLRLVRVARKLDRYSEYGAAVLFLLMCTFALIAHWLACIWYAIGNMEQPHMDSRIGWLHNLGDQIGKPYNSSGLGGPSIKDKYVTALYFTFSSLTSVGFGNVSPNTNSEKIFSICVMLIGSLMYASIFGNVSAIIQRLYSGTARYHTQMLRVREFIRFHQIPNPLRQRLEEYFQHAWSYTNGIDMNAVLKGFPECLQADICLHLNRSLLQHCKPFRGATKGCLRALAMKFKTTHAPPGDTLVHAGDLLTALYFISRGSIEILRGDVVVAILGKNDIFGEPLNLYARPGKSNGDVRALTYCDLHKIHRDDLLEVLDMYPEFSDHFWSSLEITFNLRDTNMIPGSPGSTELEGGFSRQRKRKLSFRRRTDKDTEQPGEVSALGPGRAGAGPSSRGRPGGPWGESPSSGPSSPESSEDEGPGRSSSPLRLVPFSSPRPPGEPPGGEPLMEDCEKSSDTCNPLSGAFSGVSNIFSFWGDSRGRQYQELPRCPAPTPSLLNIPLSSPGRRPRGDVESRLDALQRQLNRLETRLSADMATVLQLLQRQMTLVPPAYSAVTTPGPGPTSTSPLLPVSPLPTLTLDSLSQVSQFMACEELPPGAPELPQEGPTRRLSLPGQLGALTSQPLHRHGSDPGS

SMILES	hERG current change (%, negative = inhibition) at 1uM [%]
CC(OC(=O)c1snc(C(=O)NC2CCCCC2)c1N)C(=O)NC1CCCCC1 (centres unmarked)	-1.15
O=S(=O)(NCc1cccnc1)c1ccc(Cl)c(Cl)c1	3.04
CC(=O)Nc1ccc(S(=O)(=O)N2CCN(Cc3ccccc3[N+](=O)[O-])CC2)cc1	12.9
COCCNC(=O)c1onc(CSc2cccc(OC)c2)c1C(=O)O	3.94
COc1ccc(CC(=O)OC(C)CN2CCOCC2)cc1 (centres unmarked)	19.5
Cc1cccc(COC(=O)Nc2ccc(NC(=O)c3ccccc3Cl)cc2)c1	15
COc1ccccc1NC(=O)c1ccc(S(=O)(=O)NCc2ccco2)cc1	13.8
O=C(CSc1ccccc1)Nc1nc2ccccc2[nH]1	12
Cc1ccc(NC(=O)CCCC(=O)O)c(Br)c1	8.23
CN(Cc1ccccc1)C(=O)COC(=O)c1cncc(Br)c1	8.75
CC(=O)N/C(=C\c1ccccc1)C(=O)Nc1ccc(O)cc1	2.02
CCCCC(NC(=O)Cc1c(C)c2cc3c(C)c(C)oc3c(C)c2oc1=O)C(=O)O (centres unmarked)	4.83
CCN1C(=O)[C@H]2[C@@H](c3ccc(C)cc3)N3C(=O)N(c4ccc(C)cc4)C(=O)[C@@]3(C)[C@H]2C1=O	6.87
Cc1nn(CCCC(=O)NCc2ccccc2)c(=O)c2nccn12	12.3
CCc1ccccc1NC(=O)COc1ccc2c(=O)c(Oc3cc(C)ccc3C)coc2c1	12.5
CC(=O)c1ccc(-c2cc([C@H]3[C@H]4C=CC[C@@H](C)[C@@H]4C(=O)N3Cc3ccccc3)ccc2F)cc1	11.5
CC1CCCC(C)N1CCCNC(=O)CN1C(=O)COc2ccc(S(=O)(=O)N3CCOCC3)cc21 (centres unmarked)	10.9
CCCCN(C)C(=O)Cn1cnc2sc(C)c(S(=O)(=O)N3CCN(c4ccccc4OC)CC3)c2c1=O	13.9
N#CCSc1nnc(Cc2cccs2)n1C1CCCCC1	2.68
Cc1noc(NS(=O)(=O)c2ccc(N/C=C\C(=O)c3ccc(F)cc3)cc2)c1C	2.43
COc1cccc(N(C(C)=O)C2=NCCCS2)c1	17.3
Cc1ccc(CNC(=O)Cc2ccc(-n3cccc3)cc2)cc1	16.9

SMILES	hERG current change (%, negative = inhibition) at 1uM [%]
COC(=O)c1cc2occc2n1Cc1nc(-c2ccccc2Cl)oc1C	-7.85
c1csc(-c2nn3c(Cn4nnc5ccccc54)nnc3s2)c1	13.1
COC(=O)c1ccc(NC(=S)N2CCN(Cc3ccccc3Cl)CC2)cc1	2.31
CC1CCc2c(C(=O)Nc3cccc(-c4nn[nH]n4)c3)csc2C1 (centres unmarked)	4.9
O=C(CCSc1nnc(-c2ccco2)o1)Nc1ccc(Cl)cc1	9.01
N#CCN1C(=O)C(=O)N(Cc2cccc(C(F)(F)F)c2)C1=O	13.9
Br.CCCn1c(=N)n(CC(=O)c2ccc(OCC(=O)OC)cc2)c2ccccc21	-14.1
CCOc1ccc(NC(=O)CN(C)C(=O)CC2CC3CCC2C3)cc1OCC (centres unmarked)	4.42
COc1ccccc1OCCNC(=O)CNC(=O)c1ccc(Cl)c(Cl)c1	4.32
COc1ccc(-c2cc(C(=O)Nc3cc(S(=O)(=O)N4CCOCC4)ccc3N3CCOCC3)c3ccccc3n2)cc1	4.02
O=C(CCCn1c(=S)[nH]c2ccccc2c1=O)NCc1ccco1	-0.681
CC(C)(C)c1ccc(OCC(=O)N/N=C/c2ccsc2)cc1	3.1
Cc1ccc2nsnc2c1S(=O)(=O)N1CCN(Cc2ccc3c(c2)OCO3)CC1	2.47
Cc1ccc(S(=O)(=O)NC(=O)N2CCCN(Cc3ccc(F)cc3)CC2)cc1	10.1
CCCCNC(=S)NNC(=O)C12CC3CC(CC(C3)C1)C2	-0.28
Cl.Oc1ccc(CC2CC3CCN2CC3)cc1O (centres unmarked)	9.47
O=C(N/N=C/c1cc([N+](=O)[O-])ccc1Cl)c1cc(-c2ccccc2)nc2ccccc12	8.66
COc1ccc(N2CCN(CC(=O)c3ccccc3)CC2)cc1	12.9
COc1ccc(C(CC(=O)N2CCCC(C)C2)c2c(OC)cc(OC)c3ccc(=O)oc23)cc1 (centres unmarked)	18
O=C(CNc1ccc(F)cc1)N/N=C/C1CC=CCC1 (centres unmarked)	9.64
O=C(OCC(=O)N1CCCC1)c1c[nH]c2ccccc12	9.74
CCN(CCO)c1ccc(-n2c(N)c(C(=O)OC)c3nc4ccccc4nc32)cc1	-3.69

SMILES	hERG current change (%, negative = inhibition) at 1uM [%]
O=C(O)c1cccc(-c2ccc(/C=N/Nc3ccc([N+](=O)[O-])cc3)o2)c1	12
FC(F)(F)Oc1ccc(NC(=S)NCCCN2CCOCC2)cc1	-9.72
CC[C@H](C)[C@@H]1NC(=O)c2cc([N+](=O)[O-])cc(F)c2OCC[C@@H](C(N)=O)NC(=O)[C@H](CCCCN)NC1=O	20.1
CN1C(c2ccccc2)CC(=NO)CC1c1ccccc1 (centres unmarked)	11.1
COc1ccc(/C=C2\SC(N3CCc4ccccc4C3)=NC2=O)cc1OC	4.22
Cc1cc(C)cc(Oc2c(C(F)(F)F)oc3cc(OCC(=O)O)ccc3c2=O)c1	7.08
Cc1ccc(C)c(Nc2cc(C(=O)NCc3cccnc3)c3ccccc3n2)c1	7.29
O=[N+]([O-])c1cccnc1Sc1ccccc1Cl	16.8
Cc1ccc(-c2nc3ccc(C)cn3c2CC(=O)N(C)C)cc1.O=C(O)C(O)C(O)C(=O)O	-7.11
Oc1ccccc1/C=N/NP(=S)(c1ccccc1)c1ccccc1	2.28
CCCN(CC(=O)Nc1ccccc1OC)C(=O)CCC(=O)c1ccc(Cl)s1	2.48
Cc1nnc(SCC(=O)Nc2ccc(S(=O)(=O)N3CCCCC3)cc2)s1	9.29
c1ccc2c(c1)ncn2-c1ncnc2sc3c(c12)CCCC3	0.166
CCOc1cc2[nH]c(=O)n(CCC(=O)NCCc3ccccc3)c(=O)c2cc1OCC	1.11
O=C1c2ccc([N+](=O)[O-])cc2C(=O)N1CNc1ccccn1	13.9
CCCCCN(C(=O)NC(=O)Nc1cccc(C)c1C)S(C)(=O)=O	14.5
CCOc1cc(-c2cc(N)n[nH]2)cc(OCC)c1OCC	18.4
Cn1c(=O)c(=O)n(C)c2cc(S(=O)(=O)Nc3ccc4c(c3)OCCO4)ccc21	18.9
Cc1ccc([N+](=O)[O-])cc1NC(=S)NC(=O)c1ccco1	13.5
COc1ccc(CCC(=O)NCc2cccc(C(F)(F)F)c2)cc1	7.14
CC1CCN2c3nc4ccccn4c(=O)c3CC3(C(=O)N(C)C(=O)N(C)C3=O)C2C1 (centres unmarked)	14
O=C(CSCC(=O)N1CCOCC1)Nc1nc(-c2ccc3c(c2)OCO3)cs1	5.51

SMILES	hERG current change (%, negative = inhibition) at 1uM [%]
CN1CCN(c2ccc(S(=O)(=O)Nc3ccccc3)cc2[N+](=O)[O-])CC1	2.98
Cc1ccc(-c2ccnc3c(Cl)c(C)nn23)cc1	13.3
CC(C)CC(=O)Nc1ccc(S(=O)(=O)NCc2ccco2)cc1	-0.695
O=c1c(-c2ccccc2)c(-c2ccccc2)oc2cc(O)cc(O)c12	9.38
O=C(NC1CCN(Cc2ccccc2)CC1)C1CCN(S(=O)(=O)c2ccc(Cl)cc2)CC1	-16.9
Cc1ccc(-n2ncc3c2CCCC3NC(=O)c2cnccn2)cc1C (centres unmarked)	10.3
Cc1c(Cl)cccc1NC(=O)CSc1nncn1-c1cccnc1	11.4
CCC(=O)NC(NC(=S)Nc1cccc2cccnc12)C(Cl)(Cl)Cl (centres unmarked)	-0.0107
O=C(Nc1nc(-c2ccco2)c(-c2ccco2)s1)c1c(F)cccc1Cl	2.82
COc1cc(C(=O)NNC(=O)c2n[nH]c3ccccc23)cc(OC)c1OC	-2.81
CC(C)C(=O)N1CCN(CCN=Cc2c(O)n(C)c(=O)n(C)c2=O)CC1	0.286
COc1ccc(Cl)cc1NC(=O)CCc1nc(-c2ccccc2F)no1	10.2
CS(=O)(=O)N(CC(=O)N1CCCC1)c1cccc(Cl)c1Cl	12
CC(C)c1ccc(NC(=O)CN2C(=O)NC3(CCCC3)C2=O)cc1	14.3
COc1ccc(OCCCC(=O)N2CCCc3ccccc32)cc1	8.67
O=C(O)c1ccccc1Nc1cc(Cl)c2nonc2c1[N+](=O)[O-]	17.5
COc1ccc(-c2noc(CN(C)Cc3ccc(C)o3)n2)cc1	-6.43
COc1ccc2[nH]c3c(NCCN(C(C)C)C(C)C)ncnc3c2c1	-71.9
Nc1cc(S(=O)(=O)O)cc([N+](=O)[O-])c1O	-6.35
CN(C)c1nc2ncn(Cc3ccccc3)c2c(=O)[nH]1	6.21

— publication PMC4336329 (PLoS ONE, 2015)
